Our source for the z-score values is PubChem BioAssay AID488969 (Vanderbilt High Throughput Screening Facility, 2010).

The full ranking holds about 110,000 compounds; the median of “z-score” is about -0.1, and the highest 2% start at about 2. This is one part of the list.

This experiment addresses Metabotropic glutamate receptor 8 (Rattus norvegicus) (UniProt P70579). Nature of the experiment: rat mGluR8 modulators via GIRK flux, primary screen, cell-based, thallium flux, HTS (AID 488969). The settings on record: HEK293 rat mGluR8, GIRK (G protein-gated inwardly rectifying potassium channel) thallium flux, FluoZin2; at 10 µM; stronger effect = higher value; submaximal glutamate (EC20) added with thallium.
UniProt P70579, sequence (P70579 whole entry, looked up): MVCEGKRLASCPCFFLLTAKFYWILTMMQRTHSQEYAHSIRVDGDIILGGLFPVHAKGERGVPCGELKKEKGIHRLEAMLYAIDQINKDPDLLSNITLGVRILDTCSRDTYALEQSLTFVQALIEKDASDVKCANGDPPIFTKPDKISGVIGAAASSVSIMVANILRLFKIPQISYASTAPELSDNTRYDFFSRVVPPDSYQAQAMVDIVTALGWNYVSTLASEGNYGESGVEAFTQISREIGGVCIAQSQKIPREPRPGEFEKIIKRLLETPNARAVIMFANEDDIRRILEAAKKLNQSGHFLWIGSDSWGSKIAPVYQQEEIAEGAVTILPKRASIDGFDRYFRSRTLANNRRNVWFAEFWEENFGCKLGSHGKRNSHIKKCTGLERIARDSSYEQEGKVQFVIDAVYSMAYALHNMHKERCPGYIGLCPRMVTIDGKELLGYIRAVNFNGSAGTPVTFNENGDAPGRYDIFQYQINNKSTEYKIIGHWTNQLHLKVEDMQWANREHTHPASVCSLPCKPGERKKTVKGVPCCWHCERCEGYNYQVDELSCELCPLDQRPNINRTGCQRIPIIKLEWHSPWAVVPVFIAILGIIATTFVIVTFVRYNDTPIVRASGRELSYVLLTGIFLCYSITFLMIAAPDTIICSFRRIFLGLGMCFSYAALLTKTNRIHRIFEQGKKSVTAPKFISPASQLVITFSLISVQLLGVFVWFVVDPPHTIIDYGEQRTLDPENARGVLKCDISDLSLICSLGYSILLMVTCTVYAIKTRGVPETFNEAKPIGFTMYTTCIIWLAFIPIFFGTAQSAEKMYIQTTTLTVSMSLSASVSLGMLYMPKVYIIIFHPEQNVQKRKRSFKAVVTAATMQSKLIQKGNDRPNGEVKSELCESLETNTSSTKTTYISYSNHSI
`O=C(O)CC(NC(=O)c1ccccc1NC(=O)c1ccccc1)C(=O)O` (stereo unspecified) displayed a z-score of 0.2.
The same measure for `Cc1nnsc1SCCNC(=O)c1c(F)cccc1F`: -0.0414.
The molecule `C=CCn1c(Cc2cccs2)nnc1SCC(=O)Nc1cccc(OC)c1` gave a z-score of -0.528.
`Cc1ccccc1NC(=O)CN1C(=O)NC2(CCCCC2)C1=O` gave a z-score of 0.0629.
The same measure for `CCOc1ccccc1C1CC(=O)Nc2c1c(=O)n(C)c(=O)n2C` (stereo unspecified): -0.336; for `CCOC(=O)c1cc(NC(=O)c2ccccc2)c(=O)oc1-c1ccccc1`: -0.0159.
To `COc1ccc(Cc2nn3c(-c4cc(OC)c(OC)c(OC)c4)nnc3s2)cc1` belongs -2.53; to `Cc1cc(C)cc(OCC(=O)NCc2nc(-c3ccccc3)no2)c1`, 0.525.
The same measure for `O=C(COc1ccc(/C=N/NC(=O)c2cc3ccccc3o2)cc1Br)Nc1ccccc1`: -0.177; for `CCN(CC)S(=O)(=O)c1ccc(NC2=NS(=O)(=O)c3ccccc32)cc1`: 0.268.
`CC(NC(=O)Cn1c(NCCO)nc2ccccc21)c1ccccc1` (stereo unspecified) returned a z-score of -0.197.
For `N#Cc1c(N)n(CCOC(=O)c2cccc(Br)c2)c2nc3ccccc3nc12`, the z-score was 0.459.
The same measure for `Cc1cc2ccccc2c(=O)n1CC(=O)NCC(=O)N1CCN(c2ccccc2)CC1`: 0.244; for `O=C(/C=C/c1c(F)cccc1Cl)Nc1nc2ccccc2[nH]1`: -0.116; for `Cc1ccc(/C=N/n2nnnc2N)cc1[N+](=O)[O-]`: 0.159.
`CC1(C(=O)NC(=S)N(CCC#N)c2ccccc2)CC1(Cl)Cl` (stereo unspecified) gave a z-score of -0.0527.
To `CC(C)OCC(O)Cn1c(N2CCCC2)nc2c1c(=O)[nH]c(=O)n2C` (stereo unspecified) belongs 0.265; to `O=C(NCC1CCCO1)c1ccccc1-c1nc(-c2ccc(Cl)cc2)no1` (stereo unspecified), -0.557; to `CCCCn1nnc(NC(=S)NC(=O)c2cccs2)n1`, 0.0688.
The same measure for `CCOC(=O)N1CCN(c2c(NCc3ccc(Cl)cc3)c(=O)c2=O)CC1`: -1.06; for `CC1CC(C)CN(CCCNC(=O)CCNC(=O)Cn2ccc3ccccc3c2=O)C1` (stereo unspecified): -1.48.
To `CCOC(Cn1c(SCc2cc(C(C)=O)ccc2OC)nc2ccccc2c1=O)OCC` belongs 0.261; to `O=C(Nc1nc2ccccc2n1Cc1ccccc1)c1ccco1`, 1.7; to `CC1CCN(c2nnc(N)s2)CC1`, 0.28.
In turn, `CCCn1c(C)cc(-c2csc(N)n2)c1C` had a z-score of 0.0373.
To `CCOc1ccccc1NS(=O)(=O)N(C)C` belongs 0.286; to `COC(=O)c1onc(-c2ccccc2)c1C(=O)OC`, -0.285; to `CN(C)S(=O)(=O)c1ccc(C(=O)N2CCC(c3nc4ccccc4o3)CC2)cc1`, -0.222.
Turning to `CC(C)CC(=O)NC(=S)Nc1ccc(Cl)cn1`, the z-score amounted to 2.96.
The same measure for `COc1ccc(-c2csc(NC(=O)CN3C(=O)CCC3=O)n2)cc1OC`: -0.147; for `Cc1ccc(Nc2nc(Oc3ccc(OCc4ccccc4)nn3)nc(N3CCOCC3)n2)cc1`: -0.293.
